Reference: patent publication US20250171549A1 (Amgen, published 2025)
Where no end group is shown, it is not given here.

T1: P_7-18 construct (truncated N-terminal peptide of human CCR8 fused to V5 tag, chicken albumin, FLAG tag, BAP … (human, also: fused to V5 tag, chicken albumin, FLAG tag, BAP, H3G, biotinylated at BAP))
T1 construct: Expressed in HEK 293 cells, on streptavidin beads; not shown: same C-terminal fusion as P_1-35 construct (V5 tag, chicken albumin, FLAG tag, BAP, H3G with linkers)
T1 chain: LSVTTVTDYYYP

T2: P_1-12 construct (truncated N-terminal peptide of human CCR8 fused to V5 tag, chicken albumin, FLAG tag, BAP … (human, also: fused to V5 tag, chicken albumin, FLAG tag, BAP, H3G, biotinylated at BAP))
T2 construct: Expressed in HEK 293 cells, on streptavidin beads; not shown: same C-terminal fusion as P_1-35 construct (V5 tag, chicken albumin, FLAG tag, BAP, H3G with linkers)
T2 chain: MDYTLDLSVTTV

T3: P_19-30 construct (truncated N-terminal peptide of human CCR8 fused to V5 tag, chicken albumin, FLAG tag, BAP … (human, also: fused to V5 tag, chicken albumin, FLAG tag, BAP, H3G, biotinylated at BAP))
T3 construct: Expressed in HEK 293 cells, on streptavidin beads; not shown: same C-terminal fusion as P_1-35 construct (V5 tag, chicken albumin, FLAG tag, BAP, H3G with linkers)
T3 chain: DIFSSPCDAELI

T4: P_13-24 construct (truncated N-terminal peptide of human CCR8 fused to V5 tag, chicken albumin, FLAG tag, BAP … (human, also: fused to V5 tag, chicken albumin, FLAG tag, BAP, H3G, biotinylated at BAP))
T4 construct: Expressed in HEK 293 cells, on streptavidin beads; not shown: same C-terminal fusion as P_1-35 construct (V5 tag, chicken albumin, FLAG tag, BAP, H3G with linkers)
T4 chain: TDYYYPDIFSSP

T5: P_25-35 construct (truncated N-terminal peptide of human CCR8 fused to V5 tag, chicken albumin, FLAG tag, BAP … (human, also: fused to V5 tag, chicken albumin, FLAG tag, BAP, H3G, biotinylated at BAP))
T5 construct: Expressed in HEK 293 cells, on streptavidin beads; not shown: same C-terminal fusion as P_1-35 construct (V5 tag, chicken albumin, FLAG tag, BAP, H3G with linkers)
T5 chain: CDAELIQTNGK

B1: CCR8 TCE1 scFab × I2E × scFc (bispecific antibody)
chain: EVQLVESGGGLVKPGGSLRLSCAASGFTFSNARMGWVRQAPGKGLEWVGRIKSKTEGGTRDYAAPVKGRFTISRDDSKNTLYLQMNSLKTEDTAVYYCTSYSGVWGQGTMVTVSSASTKGPSVFPLAPSSKSTSGGTAALGCLVKDYFPEPVTVSWNSGALTSGVHTFPAVLQSSGLYSLSSVVTVPSSSLGTQTYICNVNHKPSNTKVDKKVEPKSCGGGGQGGGGQGGGGQGGGGQGGGGQGGGGQGGGGQGGGGQEIVMTQSPDSLAVSLGERATINCKSSQSVLYSSNNKNYLAWYHQKPGQSPKLLISWASTRESGVPDRFSGSGSGTDFTLTINSLQAEDVAVYYCQQYYSIPITFGGGTKVEIKRTVAAPSVFIFPPSDEQLKSGTASVVCLLNNFYPREAKVQWKVDNALQSGNSQESVTEQDSKDSTYSLSSTLTLSKADYEKHKVYACEVTHQGLSSPVTKSFNRGECSGGGGQEVQLVESGGGLVQPGGSLKLSCAASGFTFNKYAINWVRQAPGKGLEWVARIRSKYNNYATYYADAVKDRFTISRDDSKNTVYLQMNNLKTEDTAVYYCARAGNFGSSYISYWAYWGQGTLVTVSSGGGGQGGGGQGGGGQQTVVTQEPSLTVSPGGTVTIT[about 80 residues not given here]FGSGTKLTVLGGGGCPPCPAPELLGGPSVFLFPPKPKDTLMISRTPEVTCVVVDVSHEEPEVKFNWYVDGVEVHNAKTKPCEEQYGSTYRCVSVLTVLHQDWLNGKEYKCKVSNKALPAPIEKTISKAKGQPREPQVYTLPPSREEMTKNQVSLTCLVKGFYPSDIAVEWESNGQPENNYKTTPPVLDSDGSFFLYSKLTVDKSRWQQGNVFSCSVMHEALHNHYTQKSLSLSPGKGGGGQGGGGQGGGGQGGGGQGGGGQGGGGQCPPCPAPELLGGPSVFLFPPKPKDTLMISRTPEVTCVVVDVSHEEPEVKFNWYVDGVEVHNAKTKPCEEQYGSTYRCVSVLTVLHQDWLNGKEYKCKVSNKALPAPIEKTISKAKGQPREPQVYTLPPSREEMTKNQVSLTCLVKGFYPSDIAVEWESNGQPENNYKTTPPVLDSDGSFFLYSKLTVDKSRWQQGNVFSCSVMHEALHNHYTQKSLSLSPGK
B2: CCR8 TCE2 scFab × I2E × scFc (bispecific antibody)
chain: QVQLVESGGGVVQPGRSLRLSCAASGFTFSNYGMHWVRQAPGKGLEWVAVISYDGSNKFYADSVKGRFTISRDNSKKTLYLQMSSLRVEDTAVYYCARAGGIGRFDYWGQGTLVTVSSASTKGPSVFPLAPSSKSTSGGTAALGCLVKDYFPEPVTVSWNSGALTSGVHTFPAVLQSSGLYSLSSVVTVPSSSLGTQTYICNVNHKPSNTKVDKKVEPKSCGGGGQGGGGQGGGGQGGGGQGGGGQGGGGQGGGGQGGGGQDFVMTQTPLSLSVTPGQPASISCKYSQSLLHSDGKTYLFWYLQKPGQPPHLLIYEVSNRFSGVPDRFSGSGSGTDFTLKISRVEAEDVGLYYCMQTLKLPLTFGGGTKVEINRTVAAPSVFIFPPSDEQLKSGTASVVCLLNNFYPREAKVQWKVDNALQSGNSQESVTEQDSKDSTYSLSSTLTLSKADYEKHKVYACEVTHQGLSSPVTKSFNRGECSGGGGQEVQLVESGGGLVQPGGSLKLSCAASGFTFNKYAINWVRQAPGKGLEWVARIRSKYNNYATYYADAVKDRFTISRDDSKNTVYLQMNNLKTEDTAVYYCARAGNFGSSYISYWAYWGQGTLVTVSSGGGGQGGGGQGGGGQQTVVTQEPSLTVSPGGTVTIT[about 80 residues not given here]FGSGTKLTVLGGGGCPPCPAPELLGGPSVFLFPPKPKDTLMISRTPEVTCVVVDVSHEEPEVKFNWYVDGVEVHNAKTKPCEEQYGSTYRCVSVLTVLHQDWLNGKEYKCKVSNKALPAPIEKTISKAKGQPREPQVYTLPPSREEMTKNQVSLTCLVKGFYPSDIAVEWESNGQPENNYKTTPPVLDSDGSFFLYSKLTVDKSRWQQGNVFSCSVMHEALHNHYTQKSLSLSPGKGGGGQGGGGQGGGGQGGGGQGGGGQGGGGQCPPCPAPELLGGPSVFLFPPKPKDTLMISRTPEVTCVVVDVSHEEPEVKFNWYVDGVEVHNAKTKPCEEQYGSTYRCVSVLTVLHQDWLNGKEYKCKVSNKALPAPIEKTISKAKGQPREPQVYTLPPSREEMTKNQVSLTCLVKGFYPSDIAVEWESNGQPENNYKTTPPVLDSDGSFFLYSKLTVDKSRWQQGNVFSCSVMHEALHNHYTQKSLSLSPGK

How the values were obtained:
Assay in all cases: flow cytometry, construct on streptavidin beads, TCE 5 ug/mL
[1] = biological target: T1, P_7-18 construct (truncated N-terminal …)
[2] = biological target: T2, P_1-12 construct (truncated N-terminal …)
[3] = biological target: T3, P_19-30 construct (truncated N-terminal …)
[4] = biological target: T6, P_1-35 construct (full-length N-terminal peptide of human CCR8 fused to V5 tag, chicken albumin, FLAG tag, … (human, biotinylated in vivo at BAP))
T6 construct: not shown: C-terminal fusion: G4S-linker, V5 tag, G4S-linker, chicken albumin, SG-linker, FLAG tag, SG-linker, BAP (biotin acceptor)

[5] = biological target: T4, P_13-24 construct (truncated N-terminal …)
[6] = biological target: T5, P_25-35 construct (truncated N-terminal …)

Row | Binder | Median Fluorescence of Sample/Median Fluorescence of Negative Control [1] | Median Fluorescence of Sample/Median Fluorescence of Negative Control [2] | Median Fluorescence of Sample/Median Fluorescence of Negative Control [3] | Median Fluorescence of Sample/Median Fluorescence of Negative Control [4] | Median Fluorescence of Sample/Median Fluorescence of Negative Control [5] | Median Fluorescence of Sample/Median Fluorescence of Negative Control [6]
1 | B1 | 1 | 414 | 1.1 | 471 | 1.1 | 1.1
2 | B2 | 1 | 1 | 1.1 | 814 | 432 | 1
